Reference: the antibiotic and cytotoxicity screens of Wong et al. (2023)
The other results are listed elsewhere or left out.

Tests used:
[1] = system: HSkMC (human skeletal muscle cells); assay: cytotoxicity call (relative viability < 0.9); details: 10 µM
[2] = system: HepG2; assay: cytotoxicity call (relative viability < 0.9); details: 10 µM
[3] = system: S. aureus RN4220; assay: growth inhibition call (relative growth <= 0.2); details: 50 µM

SMILES	cytotoxicity call [1]	cytotoxicity call [2]	growth inhibition call [3]
Cc1ccc(S(=O)(=O)Nc2ccc3c(c2)CC(=O)N([C@H](C)CO)C[C@@H](C)[C@H](CN(C)S(=O)(=O)c2cccs2)O3)cc1	inactive	inactive	inactive
Cc1noc(C)c1S(=O)(=O)N(C)C[C@@H]1Oc2ccc(NC(=O)C3CC3)cc2CC(=O)N([C@@H](C)CO)C[C@@H]1C	inactive	inactive	inactive
C[C@@H]1CN([C@H](C)CO)C(=O)c2cccc(NC(=O)Nc3cccc4ccccc34)c2O[C@@H]1CN(C)Cc1ccccc1	inactive	inactive	inactive
Cn1c(=O)[nH]c(=O)c2c(=O)cc[nH]c21	inactive	inactive	inactive
CC(C)NC(=O)Nc1ccc2c(c1)CC(=O)N([C@@H](C)CO)C[C@H](C)[C@H](CN(C)Cc1ccc(-c3ccccc3)cc1)O2	inactive	inactive	inactive
COc1ccc2c3c(n(c2c1)C)[C@@H](CO)N(C[C@]13CCN(CC1)C(=O)Nc1ccc(cc1)F)C(=O)c1ccc(cc1)F	inactive	inactive	inactive
C[C@@H]1CN([C@@H](C)CO)C(=O)c2cccc(NS(=O)(=O)c3ccc(Cl)cc3)c2O[C@@H]1CN(C)C(=O)Nc1ccc(C(F)(F)F)cc1	active	active	inactive
C[C@@H]1CN([C@H](C)CO)C(=O)c2cc(NC(=O)NC3CCCCC3)ccc2O[C@@H](C)CCCCO[C@H]1CN(C)C(=O)Nc1ccccc1	inactive	inactive	inactive
COc1ccc(S(=O)(=O)N(C)C[C@H]2Oc3ccc(NC(=O)CCCN(C)C)cc3CC(=O)N([C@@H](C)CO)C[C@H]2C)cc1	inactive	inactive	inactive
Cc1ccc(S(=O)(=O)N(C)C[C@H]2Oc3ccc(NC(=O)Cn4cnnn4)cc3C(=O)N([C@H](C)CO)C[C@H]2C)cc1	inactive	inactive	inactive
COCCOC(=O)N1C(=O)[C@@]2(c3cc(C#CCC(C(=O)OC)C(=O)OC)ccc31)[C@H](C(=O)Nc1nc3ccccc3s1)[C@H]1C(=O)O[C@H](c3ccccc3)[C@H](c3ccccc3)N1[C@@H]2c1ccccc1OCCO	inactive	inactive	inactive
COc1ccc(S(=O)(=O)N(C)C[C@H]2Oc3ncc(-c4ccncc4)cc3C(=O)N([C@@H](C)CO)C[C@@H]2C)cc1	inactive	inactive	inactive
CC(C)CC#Cc1ccc2c(c1)O[C@H](CN(C)S(=O)(=O)c1cccc(F)c1)[C@@H](C)CN([C@@H](C)CO)S2(=O)=O	inactive	inactive	inactive
C[C@H](CO)N1C[C@H](C)[C@H](CN(C)S(C)(=O)=O)OCCCC[C@H](C)Oc2ccc(NC(=O)CCCN(C)C)cc2C1=O	inactive	inactive	inactive
COc1ccc(C(=O)Nc2ccc3c(c2)C(=O)N(C)[C@H]2CC[C@H](CC(=O)NCC4CC4)O[C@H]2CO3)cc1	inactive	inactive	inactive
C[C@H]1CN([C@@H](C)CO)C(=O)c2cc(NC(=O)Cc3ccccc3)ccc2O[C@@H]1CN(C)Cc1ccc(Cl)c(Cl)c1	inactive	inactive	inactive
OC[C@@H](O)[C@H]1O[C@H](c2ccccc2)OC[C@@H]1O	inactive	inactive	inactive
C[C@@H]1CN([C@@H](C)CO)C(=O)c2cc(-c3cccc(C(=O)N(C)C)c3)cnc2O[C@@H]1CN(C)S(=O)(=O)c1ccccc1	inactive	inactive	inactive
COCCCOc1cc(CC(CC(N)C(O)CC(C(=O)NCC(C)(C)C(N)=O)C(C)C)C(C)C)ccc1OC.O=C(O)C=CC(=O)O (stereo not drawn)	inactive	inactive	inactive

SMILES	cytotoxicity call [1]	cytotoxicity call [2]	growth inhibition call [3]
CCC(=O)Nc1ccc(C)cc1C	inactive	inactive	inactive
CC(=O)N[C@@H]1CC[C@@H](CCNC(=O)C2CC2)O[C@H]1CO	inactive	inactive	inactive
CC1CCN(S(=O)(=O)c2c[nH]cn2)CC1	inactive	inactive	inactive
C=CC(=O)Nc1cccc(Nc2nc(Nc3ccc(NC4CN(CCF)C4)cc3OC)ncc2C(F)(F)F)c1	active	active	inactive
C[C@H]1CN([C@@H](C)CO)C(=O)Cc2cc(NS(=O)(=O)c3cccs3)ccc2O[C@@H]1CN(C)Cc1ccncc1	inactive	inactive	inactive
C[C@H](CO)N1C[C@H](C)[C@@H](CN(C)S(=O)(=O)c2cn(C)cn2)Oc2ccc(NC(=O)Nc3ccc4c(c3)OCO4)cc2CC1=O	inactive	inactive	inactive
COc1ccc(S(=O)(=O)N(C)C[C@@H]2Oc3c(NC(=O)Nc4cccc5ccccc45)cccc3C(=O)N([C@@H](C)CO)C[C@H]2C)c(OC)c1	active	active	inactive
COc1ccc(S(=O)(=O)N(C)C[C@@H]2Oc3ccc(NC(=O)c4ccncc4)cc3CC(=O)N([C@@H](C)CO)C[C@@H]2C)cc1	inactive	inactive	inactive
CC(C)Cn1cnc2c(N)nc3ccccc3c21.Cl	inactive	inactive	inactive
NNS(=O)(=O)c1ccc(Oc2ccc(S(=O)(=O)NN)cc2)cc1	inactive	active	inactive
Cc1noc(C)c1NC(=O)N(C)C[C@@H]1Oc2c(NS(=O)(=O)c3c(C)noc3C)cccc2C(=O)N([C@H](C)CO)C[C@@H]1C	inactive	inactive	inactive
COc1ccc(CN(C)C[C@H]2Oc3c(NS(C)(=O)=O)cccc3C(=O)N([C@@H](C)CO)C[C@@H]2C)cc1	inactive	inactive	inactive
CO/N=C(\C(=O)N[C@@H]1C(=O)N2C(C(=O)O)=C(C[n+]3ccn4ncccc43)CS[C@H]12)c1nsc(N)n1	inactive	inactive	inactive
CN1C(=O)c2cc(NC(=O)c3cccs3)ccc2OC[C@@H]2O[C@@H](CC(=O)NCCN3CCCCC3)CC[C@@H]21	inactive	inactive	inactive
COc1cccc2ccc(Cl)nc12	inactive	inactive	inactive
C[C@@H]1CCCCO[C@H](CN(C)C(=O)Nc2ccc(C(F)(F)F)cc2)[C@H](C)CN([C@@H](C)CO)C(=O)c2cc(N(C)C)ccc2O1	inactive	inactive	inactive
COc1ccc([C@H]2C/C=C\C[C@@H](c3cccc(Cl)c3)NC(=O)[C@H](c3ccccc3)CC(=O)N2)c(OC)c1	inactive	inactive	inactive
O=C(C[C@H]1C=C[C@H](NS(=O)(=O)c2ccc(F)cc2)[C@@H](CO)O1)NCc1ccc(Cl)c(Cl)c1	inactive	inactive	inactive
O=C(O)CCN1CCCCCC1=O	inactive	inactive	inactive

SMILES	cytotoxicity call [1]	cytotoxicity call [2]	growth inhibition call [3]
C[C@H](CO)N1C[C@H](C)[C@H](CN(C)C(=O)Nc2ccc(C(F)(F)F)cc2)Oc2ccc(NC(=O)Cn3cnnn3)cc2CC1=O	inactive	inactive	inactive
CO[C@H]1O[C@H](CO)[C@@H](OC(=O)c2ccc(Br)cc2)[C@@H]2OC(=O)[C@@H](Cc3ccccc3)C/C=C/C[C@H](Cc3ccccc3)C(=O)O[C@@H]12	inactive	inactive	inactive
C[C@@H]1CCCCO[C@H](CN(C)C(=O)c2ccccc2)[C@@H](C)CN([C@H](C)CO)C(=O)c2cc(NC(=O)Nc3ccccc3)ccc2O1	inactive	inactive	inactive
C[C@@H]1CN([C@@H](C)CO)C(=O)c2cccc(NC(=O)Nc3ccc4c(c3)OCO4)c2O[C@@H]1CN(C)Cc1ccc(C(=O)Nc2ccccc2N)cc1	inactive	inactive	inactive
c1ccc2[nH]c(-c3ccncc3)nc2c1	inactive	inactive	inactive
C[C@@H]1CN([C@@H](C)CO)C(=O)c2cccc(NC(=O)Nc3ccccc3)c2O[C@H]1CN(C)S(=O)(=O)c1cn(C)cn1	inactive	inactive	inactive
C[C@@H]1CN([C@@H](C)CO)C(=O)c2cc(NC(=O)Cc3ccccc3)ccc2O[C@H]1CN(C)C(=O)Nc1ccc(C(F)(F)F)cc1	inactive	inactive	inactive
CC(C)NC(=O)N(C)C[C@H]1Oc2ccc(NC(=O)Cc3ccccc3)cc2CC(=O)N([C@@H](C)CO)C[C@H]1C	inactive	inactive	inactive
CC(C)NC(=O)N(C)C[C@@H]1OCCCC[C@@H](C)Oc2ccc(NC(=O)Nc3cccc4ccccc34)cc2C(=O)N([C@@H](C)CO)C[C@@H]1C	inactive	inactive	inactive
CC(=N)NCCSCC[C@H](N)C(=O)O	inactive	inactive	inactive
CC/C(=C\C(=O)O)c1ccccc1	inactive	inactive	inactive
C[C@@H]1CCCCO[C@@H](CN(C)S(=O)(=O)c2ccc(F)cc2)[C@H](C)CN([C@H](C)CO)C(=O)c2cc(NC(=O)C3CCCCC3)ccc2O1	inactive	active	inactive
Cc1ccc(S(=O)(=O)Nc2ccc3c(c2)C(=O)N([C@@H](C)CO)C[C@H](C)[C@H](CN(C)C(=O)CCC(F)(F)F)OCCCC[C@@H](C)O3)cc1	inactive	inactive	inactive
C[C@H](CO)N1C[C@H](C)[C@@H](CN(C)Cc2ccc(Cl)c(Cl)c2)Oc2ccc(NC(=O)Cc3ccccc3)cc2CC1=O	inactive	inactive	inactive
COc1ccc2c3c([nH]c2c1)[C@H](CO)N(C[C@]13CCN(CC1)C(=O)Nc1cccc(c1)F)C(=O)c1ccc(cc1)F	inactive	inactive	inactive
C[C@H](CO)N1C[C@H](C)[C@H](CN(C)S(=O)(=O)c2ccc(C(F)(F)F)cc2)OCc2ccccc2-c2c(n(C)c3ccccc23)C1=O	inactive	inactive	inactive
Cc1noc(C)c1NC(=O)Nc1ccc2c(c1)CC(=O)N([C@H](C)CO)C[C@@H](C)[C@@H](CN(C)S(=O)(=O)c1cccs1)O2	inactive	inactive	inactive
COc1ccc(CNC(=O)N(C)C[C@H]2OCc3ccccc3-c3c(n(C)c4ccccc34)C(=O)N([C@@H](C)CO)C[C@H]2C)cc1	inactive	inactive	inactive
